Experimental data published in the RNAGym collection of RNA variant scans (doi:10.7554/elife.90254).
The source gives no read counts; variants with many changes may rest on few reads.

B1: LINE1-full (parent)
chain: UACGUAGGUGGUUUUCCCCUGAUAGUGCUAAGGGGGCCUGGAAGUUUGGACUGGGCAGAGCUCAACACAGCGUGGCAAAGUGGCUGUGGCUAGACUGCCUCUCUGGAUUCCUCGUCACUCAGCAGGGCAUCUCUGAGAGAAAUGCC

Variants of: B1
Test: self-cleavage, relative activity (ratio to wild type); higher = more cleavage; in vitro, sequencing; the parent is a self-cleaving ribozyme

Row | Variant | self-cleavage
1 | U52C A67U U112C | 0.1
2 | U52C C84U U115A A136G | 0.22
3 | G55A U115A A142G | 0.22
4 | A57G A69G U100C A142G | 0
5 | U52C A69G A136G | 0.2
6 | C56U A59G U62G U102A U115A | 0.1
7 | U52C A117G C123U | 1.78
8 | U52C U130C A140G | 1.17
9 | U52C A64U G72A A77U A78G U109C | 0.07
10 | G55A A67U G88A A142G | 0.02
11 | U52C U81G C131U | 1.6
12 | U52C U112C C120U | 1.3
13 | G54A A77G A79U | 1.17
14 | A57G A79G U112C U143C | 0.63
15 | U52C A79G U87G A117G | 0
16 | C56U U91C U104C | 0.02
17 | A57G A77G A124G A136G U143C | 1.02
18 | U52C U104C U108A G114A | 0.54
19 | G53A U81C A138U A141G | 2
20 | A57G A65U G72C U96C | 0.33
21 | A57G A65U U134C | 0.3
22 | G53A U100C U102C | 1.25
23 | C56U A57G A140G | 0.15
24 | U52A U132C A140G | 0.27

Row | Variant | self-cleavage
25 | C56U A94G A117G A138U | 0.09
26 | U52C U85G U134C | 0
27 | A57G A64U U143A | 0.08
28 | G54A C56U A59U C99U U102C | 0.04
29 | U52C G80A U96A A117U A124G A136G | 0
30 | U52C G53A A64G A77U U112C | 0.03
31 | A57G A138G A140G | 1.58
32 | C56U U73A U130C | 0.15
33 | A57G A79G A142G | 0.42
34 | U52C G122A A140U | 1.15
35 | C56U G72C G127A | 0.2
36 | A57G A77G U87C A138G | 0
37 | U52C U91C A140G U143A | 0.57
38 | A57C U85A A138G | 0.21
39 | G53A U130C U134C | 0.93
40 | G54U A79G A107U | 0.69
41 | U52C C71U U115C | 0.7
42 | U52C A64C U115C | 0.31
43 | U52C A57U A92U U108C | 0.57
44 | A57G A67C A140G | 0.06
45 | G54U U96C U112C A140U | 0.07
46 | C56U C84U A121U U143C | 0.03
47 | G53A A65G U73A U96C | 0.06
48 | C56U A64G C76U U85C | 0.03

Row | Variant | self-cleavage
49 | U52C U132C A136G A138U | 0
50 | A57G A78U U96A | 0.04
51 | A57G A124U A141G | 0.76
52 | U52C A65G U73A | 0
53 | U52C A77G C120U | 2.05
54 | U52A U109C U143C | 1.37
55 | C56U G135A C145U | 0.1
56 | U52C U62C A67G | 0
57 | G54U U96C A141G | 0.03
58 | A57G A69U U85A A140U | 0.22
59 | G55A U62C A117G A138G | 0.04
60 | C56A G93A A141G | 0.03
61 | U52C A64U U73C U91C C123U | 0.37
62 | U52C A78G A138U | 0.96
63 | G54A C68U U81C | 0.08
64 | G54A U73A A78G A141G | 0.09
65 | A57G A77G U87A A92G | 0
66 | C56G A57U U115C | 0.09
67 | A57G A117U A124U | 0.79
68 | U52C A107G U130C | 2.37
69 | U52C G88A U130C G139U | 0.06
70 | U52A U115C U134A | 1.92
71 | U52C A67C U108A | 0.22
72 | G53U C61U U87A | 0.02

Row | Variant | self-cleavage
73 | U52C G53U A64G | 0.2
74 | C56G A64G A124U | 0.04
75 | A57G A67C A117G | 0.32
76 | A57G A64G A67G U87C C95A C99U | 0
77 | A57G A79U U115A | 1.78
78 | G55A U96C U143C | 0.05
79 | U52C G53U C116U | 1.02
80 | U52C U87A A117U A140G | 0.03
81 | G54A C68U A129U | 0.07
82 | G53A A78U A136G C146U | 2.22
83 | G53U A78G A124G U143A | 0.5
84 | C56U U62C A77G A78G | 0.16
85 | G54U A69G A117C U134C A141G | 0.84
86 | U52G U81A A92G | 0.41
87 | U52C A67G U104C | 0
88 | U52C C103A U134C | 1.52
89 | G54U G74A A92G A124G G135A | 0.03
90 | A57C U73C A124C | 0
91 | C56G A77U U87C U102C | 0.09
92 | U52C A59G A79G | 0
93 | A57G A79U C123U G127U | 0.84
94 | U52C U62A U81A A141G | 0.06
95 | A57G A78G U81C | 0.92
96 | G53A U109C A121G | 0.73

Row | Variant | self-cleavage
97 | U52C U81G A142G | 0.64
98 | U52A U132C A136G | 1.14
99 | G53U A67G U73C | 0
100 | A57G C71U G114A A124U | 0.14
101 | G55C U81A A136U | 0.11
102 | U52C U108A U132A | 0.92
103 | G54C A65G U73C A138G | 0
104 | U52C A65G A67G | 0
105 | A57G C71A A138U | 0.14
106 | A57G C71U A121G | 0.12
107 | G54C U62C A78G | 0.06
108 | G54C U100A U104A | 0.14
109 | A57G A77C U81A U104C | 0.43
110 | G53U A57U C110A U112A U132C | 0.06
111 | U52C A65G A94G | 1.02
112 | G54U A78G U85C A140G | 0.05
113 | G53A A67G A136G | 0.44
114 | U52C U73A A124G | 2.04
115 | U52C G58U U62C C123U | 0.03
116 | U52C U115G A142G | 1.53
117 | U52C U115C U134A | 1.34
118 | U52C A77U C113U A141U | 1.14
119 | G55A A69G U104C G125C | 0.23
120 | G54A U91C A124G A138G A140G | 0.06

Row | Variant | self-cleavage
121 | A57G A65G U130C A140G | 0.26
122 | U52C A77G U112A | 1.08
123 | A57G A67G U134A | 0
124 | U52C A117G G125U | 2.22
125 | A57G A77U G82A A142G | 1.41
126 | A57G C66U A77G A140G | 0.02
127 | U52C U62C U85C | 0
128 | U52C U62C U102C U143A | 0
129 | G54U U109A U115C | 0.96
130 | C56G G114A A121U | 0.07
131 | U52C U102A A138G | 2.77
132 | U52C A77U A121G | 0
133 | G54A A69U G114U | 0
134 | U52C A64U A77G U100C A124G | 1.41
135 | C56A A57G A78G G89A | 0.04
136 | G54U A57G A92U | 0.12
137 | U52G A92G A117U | 0.15
138 | U52C A69U A78G A92U U132C | 0
139 | U52A U115C A136U A141G | 1.81
140 | A57C G88A U104A | 0.04
141 | G54A A79G U96A | 0
142 | G53A U62C A117U A138G | 0.01
143 | A57G A78G C131U | 0.48
144 | U52C G74A A94G | 0.18

Row | Variant | self-cleavage
145 | A57C A92U U115A U130A | 0.04
146 | G55A C71U G89A U115A A141G | 0.02
147 | G54A A67U U108C | 0.04
148 | A57G A77G U143A | 1.39
149 | C56U U62C A67G G80A | 0.05
150 | G55A A78G G114A | 0.15
151 | U52A U102C U143A | 1.17
152 | U52C U62C U87C | 0
153 | U52C C68A A69G | 0.06
154 | U52C U87G U119A A121U A136G A138G | 0
155 | G55U G58U U100C A140G | 0
156 | G54A U115C U132C A136G | 0.6
157 | G55A U91C A92U G126U A138G | 0.1
158 | C56U A67G U104C | 0.28
159 | U52C U62C A94U | 0.08
160 | G53A A78G A141G | 1.23
161 | U52C U73A A124U U143C | 0.9
162 | G54A G72U U108C | 0.83
163 | U52C A57G U100C A141G | 1.75
164 | U52A U130A A140G | 1.18
165 | U52C A77G U109A A140G A142G | 2.03
166 | A57G A64G A77G G80U | 0.32
167 | G55C C76U U85C U87C | 0.36
